Laboratory results reported in the supplement of paper PMC10369915.
The other results are listed elsewhere or left out. Cut-off read from the data, not from the text of the source: active = 3.2 or more and inactive = the rest. Most of these values are background signal.

Assays:
Assay in all cases: enrichment score (SH2-bound / input frequency) (ratio); bacterial display of known human phosphotyrosine sites (pTyr-Var adds point mutants) read by sequencing; higher = stronger binding; tyrosines were phosphorylated by kinases first
Settings in all cases: peptide library: pTyr-Var
[1] = molecular target: SHP2 C-SH2 domain E139D
[2] = molecular target: SHP2 C-SH2 domain wild-type
[3] = molecular target: SHP2 N-SH2 domain L43F
[4] = molecular target: SHP2 N-SH2 domain T42A
[5] = molecular target: SHP2 N-SH2 domain T52S
[6] = molecular target: SHP2 N-SH2 domain wild-type
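Note: displayed peptides selected on beads carrying the immobilized SH2 domain, with library peptides lacking any tyrosine serving as negative controls.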

With LEQDEYALRSH [HADHB_Y244] the enrichment score [1] was inactive: 0.691, the enrichment score [2] was inactive: 0.615 and the enrichment score [3] was inactive: 0.626. For the same binder, the enrichment score [4] was inactive: 0.402, the enrichment score [5] was inactive: 0.714 and the enrichment score [6] was inactive: 0.665.

With FFRDGHMPRQF [GSS_Y270_Y270H_YF] the enrichment score [1] was inactive: 0.843, the enrichment score [2] was inactive: 0.665 and the enrichment score [3] was inactive: 0.649. For the same binder, the enrichment score [4] was inactive: 0.797, the enrichment score [5] was inactive: 0.716 and the enrichment score [6] was inactive: 0.841.

FISLIYTNFEA [GSTP1_Y109_YF] was tested, and the enrichment score [1] was inactive: 1.85, the enrichment score [2] was inactive: 1.91 and the enrichment score [3] was inactive: 1.46. The enrichment score [4] was inactive: 1.76, the enrichment score [5] was inactive: 1.74 and the enrichment score [6] was inactive: 2.49.

QNKEDYDGLKE [GSTO1_Y139_A140D] was tested, and the enrichment score [1] was inactive: 0.284, the enrichment score [2] was inactive: 0.438 and the enrichment score [3] was inactive: 0.542. For the same binder, the enrichment score [4] was inactive: 0.618, the enrichment score [5] was inactive: 0.377 and the enrichment score [6] was inactive: 0.684.

VTDGKYAFKPK [GTF2E2_Y137_I133T] was tested, and the enrichment score [1] was inactive: 0.495, the enrichment score [2] was inactive: 0.619 and the enrichment score [3] was inactive: 0.686. The enrichment score [4] was inactive: 0.479, the enrichment score [5] was inactive: 0.379 and the enrichment score [6] was inactive: 0.608.

For NVDGKYSYLKV [GRM3_Y478_G475D], the enrichment score [1] was inactive: 0.869, the enrichment score [2] was inactive: 0.952 and the enrichment score [3] was inactive: 0.656. For the same binder, the enrichment score [4] was inactive: 1.21, the enrichment score [5] was inactive: 0.749 and the enrichment score [6] was inactive: 0.669.

In the case of LTPVKYLLSAT [GSDMC_Y26], the enrichment score [1] is reported as inactive: 1.33, the enrichment score [2] is reported as inactive: 1.24 and the enrichment score [3] is reported as inactive: 1.11. For the same binder, the enrichment score [4] was inactive: 0.8, the enrichment score [5] was inactive: 1.15 and the enrichment score [6] was inactive: 0.938.

For DGKYSYLKVGH [GRM3_Y480_G475D], the enrichment score [1] was inactive: 0.681, the enrichment score [2] was inactive: 0.607 and the enrichment score [3] was inactive: 0.545. For the same binder, the enrichment score [4] was inactive: 1.07, the enrichment score [5] was inactive: 0.474 and the enrichment score [6] was inactive: 0.84.

In the case of LAAAGYDVEKN [H1-3_Y72], the enrichment score [1] is reported as inactive: 0.769, the enrichment score [2] is reported as inactive: 0.741 and the enrichment score [3] is reported as inactive: 0.865. For the same binder, the enrichment score [4] was inactive: 0.591, the enrichment score [5] was inactive: 0.753 and the enrichment score [6] was inactive: 0.74.

In the case of PEACDYGLGGG [GSTO1_Y239], the enrichment score [1] is reported as inactive: 0.719, the enrichment score [2] is reported as inactive: 0.521 and the enrichment score [3] is reported as inactive: 0.455. The enrichment score [4] was inactive: 0.938, the enrichment score [5] was inactive: 0.715 and the enrichment score [6] was inactive: 0.92.

In the case of LIFTNYEVGKD [GSTP1_Y112_A114V_YF], the enrichment score [1] is reported as inactive: 1.25, the enrichment score [2] is reported as inactive: 1.39 and the enrichment score [3] is reported as inactive: 1.32. The enrichment score [4] was inactive: 1.22, the enrichment score [5] was inactive: 1.21 and the enrichment score [6] was inactive: 1.32.

For DSFATYFRRVL [H2BW1_Y84], the enrichment score [1] was inactive: 0.431, the enrichment score [2] was inactive: 0.296 and the enrichment score [3] was inactive: 0.365. The enrichment score [4] was inactive: 0.396, the enrichment score [5] was inactive: 0.423 and the enrichment score [6] was inactive: 0.339.

ALMGLYHGQVL [HADHA_Y343] was tested, and the enrichment score [1] was inactive: 0.486, the enrichment score [2] was inactive: 0.908 and the enrichment score [3] was inactive: 0.839. For the same binder, the enrichment score [4] was inactive: 0.791, the enrichment score [5] was inactive: 0.919 and the enrichment score [6] was inactive: 0.785.

With ERTIEYLEEVA [HADHA_Y239] the enrichment score [1] was inactive: 0.962, the enrichment score [2] was inactive: 0.764 and the enrichment score [3] was inactive: 0.945. The enrichment score [4] was inactive: 1.49, the enrichment score [5] was inactive: 0.857 and the enrichment score [6] was inactive: 0.905.

For EKRDAYVSCLN [GSR_Y150_R153C], the enrichment score [1] was inactive: 0.827, the enrichment score [2] was inactive: 0.796 and the enrichment score [3] was inactive: 0.527. The enrichment score [4] was inactive: 0.48, the enrichment score [5] was inactive: 0.565 and the enrichment score [6] was inactive: 1.

VRQQVYKKVEE [HADHA_Y283] was tested, and the enrichment score [1] was inactive: 0.561, the enrichment score [2] was inactive: 0.768 and the enrichment score [3] was inactive: 0.511. For the same binder, the enrichment score [4] was inactive: 0.669, the enrichment score [5] was inactive: 0.429 and the enrichment score [6] was inactive: 0.646.

With SDYYAYSPVQE [H6PD_Y449_R453Q] the enrichment score [1] was inactive: 0.656, the enrichment score [2] was inactive: 0.818 and the enrichment score [3] was inactive: 0.674. The enrichment score [4] was inactive: 0.811, the enrichment score [5] was inactive: 0.592 and the enrichment score [6] was inactive: 0.805.

For RAILDYIASKY [GSTA3_Y74_N73D], the enrichment score [1] was inactive: 1.31, the enrichment score [2] was inactive: 1.25 and the enrichment score [3] was inactive: 1.53. For the same binder, the enrichment score [4] was inactive: 1.03, the enrichment score [5] was inactive: 1.36 and the enrichment score [6] was inactive: 1.36.

For FVSLIYTNFEA [GSTP1_Y109_I105V_YF], the enrichment score [1] was inactive: 1.84, the enrichment score [2] was inactive: 1.52 and the enrichment score [3] was inactive: 1.61. For the same binder, the enrichment score [4] was inactive: 1.5, the enrichment score [5] was inactive: 1.66 and the enrichment score [6] was inactive: 1.77.

With SHGQDYLAGNK [GSTA2_Y147_V149A] the enrichment score [1] was inactive: 0.598, the enrichment score [2] was inactive: 0.685 and the enrichment score [3] was inactive: 0.526. For the same binder, the enrichment score [4] was inactive: 0.599, the enrichment score [5] was inactive: 0.64 and the enrichment score [6] was inactive: 0.503.

With DSFATYFRWVL [H2BW1_Y84_R87W] the enrichment score [1] was inactive: 1.93, the enrichment score [2] was inactive: 1.84 and the enrichment score [3] was inactive: 1.61. The enrichment score [4] was inactive: 1.71, the enrichment score [5] was inactive: 1.85 and the enrichment score [6] was inactive: 1.95.

FFRDGCMPRQF [GSS_Y270_Y270C_YF] was tested, and the enrichment score [1] was inactive: 0.875, the enrichment score [2] was inactive: 0.802 and the enrichment score [3] was inactive: 0.782. For the same binder, the enrichment score [4] was inactive: 0.722, the enrichment score [5] was inactive: 0.795 and the enrichment score [6] was inactive: 1.14.

In the case of RALLNYIASKY [GSTA3_Y74_I71L], the enrichment score [1] is reported as inactive: 1.35, the enrichment score [2] is reported as inactive: 1.16 and the enrichment score [3] is reported as inactive: 1.39. For the same binder, the enrichment score [4] was inactive: 1.15, the enrichment score [5] was inactive: 1.31 and the enrichment score [6] was inactive: 1.34.

With EKRDAYVSRLN [GSR_Y150] the enrichment score [1] was inactive: 0.693, the enrichment score [2] was inactive: 0.643 and the enrichment score [3] was inactive: 0.617. The enrichment score [4] was inactive: 0.661, the enrichment score [5] was inactive: 0.541 and the enrichment score [6] was inactive: 0.667.

EWRSPYGLTPR [GRIN3B_Y601] was tested, and the enrichment score [1] was inactive: 0.755, the enrichment score [2] was inactive: 0.62 and the enrichment score [3] was inactive: 0.578. The enrichment score [4] was inactive: 0.606, the enrichment score [5] was inactive: 0.682 and the enrichment score [6] was inactive: 0.783.

In the case of RAILNYIASKF [GSTA3_Y74_YF], the enrichment score [1] is reported as inactive: 0.638, the enrichment score [2] is reported as inactive: 0.578 and the enrichment score [3] is reported as inactive: 0.734. The enrichment score [4] was inactive: 0.674, the enrichment score [5] was inactive: 0.78 and the enrichment score [6] was inactive: 0.692.

For YFRDGCMPRQY [GSS_Y270_Y270C], the enrichment score [1] was inactive: 0.647, the enrichment score [2] was inactive: 0.833 and the enrichment score [3] was inactive: 0.769. The enrichment score [4] was inactive: 0.661, the enrichment score [5] was inactive: 0.511 and the enrichment score [6] was inactive: 0.945.

For DGKFSYLKVGH [GRM3_Y480_G475D_YF], the enrichment score [1] was inactive: 0.905, the enrichment score [2] was inactive: 0.891 and the enrichment score [3] was inactive: 0.997. The enrichment score [4] was inactive: 0.789, the enrichment score [5] was inactive: 0.803 and the enrichment score [6] was inactive: 0.827.

LAAAGYDVKKN [H1-3_Y72_E75K] was tested, and the enrichment score [1] was inactive: 0.542, the enrichment score [2] was inactive: 0.732 and the enrichment score [3] was inactive: 1.09. For the same binder, the enrichment score [4] was inactive: 0.709, the enrichment score [5] was inactive: 0.768 and the enrichment score [6] was inactive: 1.06.

For QNKEDYAGLKE [GSTO1_Y139], the enrichment score [1] was inactive: 0.422, the enrichment score [2] was inactive: 0.534 and the enrichment score [3] was inactive: 0.618. For the same binder, the enrichment score [4] was inactive: 0.645, the enrichment score [5] was inactive: 0.495 and the enrichment score [6] was inactive: 0.637.

In the case of YVSLIYTNYEA [GSTP1_Y109_I105V], the enrichment score [1] is reported as active: 3.62, the enrichment score [2] is reported as active: 5.38 and the enrichment score [3] is reported as active: 6.15. The enrichment score [4] was active: 10.3, the enrichment score [5] was active: 7.94 and the enrichment score [6] was inactive: 2.98.

With EWCSPYGLTPR [GRIN3B_Y601_R598C] the enrichment score [1] was inactive: 0.899, the enrichment score [2] was inactive: 0.772 and the enrichment score [3] was inactive: 0.971. The enrichment score [4] was inactive: 0.607, the enrichment score [5] was inactive: 0.857 and the enrichment score [6] was inactive: 0.95.

In the case of VPFAQYLAMNK [HARS1_Y138_R137Q], the enrichment score [1] is reported as inactive: 0.981, the enrichment score [2] is reported as inactive: 0.989 and the enrichment score [3] is reported as inactive: 1.13. For the same binder, the enrichment score [4] was inactive: 0.874, the enrichment score [5] was inactive: 1.06 and the enrichment score [6] was inactive: 0.905.

For YISLIYTNYEA [GSTP1_Y109], the enrichment score [1] was inactive: 3.1, the enrichment score [2] was inactive: 3.03 and the enrichment score [3] was active: 4.57. For the same binder, the enrichment score [4] was active: 7.74, the enrichment score [5] was active: 5.62 and the enrichment score [6] was inactive: 2.77.

With IKGIRYLHHQG [GUCY2D_Y656_R660Q] the enrichment score [1] was inactive: 1.29, the enrichment score [2] was inactive: 1.5 and the enrichment score [3] was inactive: 1.35. For the same binder, the enrichment score [4] was inactive: 1.15, the enrichment score [5] was inactive: 1.77 and the enrichment score [6] was inactive: 1.51.

In the case of SHGQDYLVGNK [GSTA1_Y147], the enrichment score [1] is reported as inactive: 0.629, the enrichment score [2] is reported as inactive: 0.855 and the enrichment score [3] is reported as inactive: 0.665. The enrichment score [4] was inactive: 0.638, the enrichment score [5] was inactive: 0.637 and the enrichment score [6] was inactive: 0.898.

In the case of NVDGKYSFLKV [GRM3_Y478_G475D_YF], the enrichment score [1] is reported as inactive: 0.825, the enrichment score [2] is reported as inactive: 0.825 and the enrichment score [3] is reported as inactive: 0.795. The enrichment score [4] was inactive: 0.591, the enrichment score [5] was inactive: 0.73 and the enrichment score [6] was inactive: 0.707.
